The whole screen tested about 310,000 compounds, of which about 14,000 (4.5%) showed an effect of 50% or more. Effects have a minus sign here. This is one part of the list.
Biological target: human ether-à-go-go-related gene (hERG) potassium channel (human, UniProt Q12809)
Test: primary screen, population patch clamp on CHO cells stably expressing hERG
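Further: peak tail current of the secondary pulse compared with the same well before compound.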

human ether-à-go-go-related gene (hERG) potassium channel, sequence (Q12809 whole entry, looked up): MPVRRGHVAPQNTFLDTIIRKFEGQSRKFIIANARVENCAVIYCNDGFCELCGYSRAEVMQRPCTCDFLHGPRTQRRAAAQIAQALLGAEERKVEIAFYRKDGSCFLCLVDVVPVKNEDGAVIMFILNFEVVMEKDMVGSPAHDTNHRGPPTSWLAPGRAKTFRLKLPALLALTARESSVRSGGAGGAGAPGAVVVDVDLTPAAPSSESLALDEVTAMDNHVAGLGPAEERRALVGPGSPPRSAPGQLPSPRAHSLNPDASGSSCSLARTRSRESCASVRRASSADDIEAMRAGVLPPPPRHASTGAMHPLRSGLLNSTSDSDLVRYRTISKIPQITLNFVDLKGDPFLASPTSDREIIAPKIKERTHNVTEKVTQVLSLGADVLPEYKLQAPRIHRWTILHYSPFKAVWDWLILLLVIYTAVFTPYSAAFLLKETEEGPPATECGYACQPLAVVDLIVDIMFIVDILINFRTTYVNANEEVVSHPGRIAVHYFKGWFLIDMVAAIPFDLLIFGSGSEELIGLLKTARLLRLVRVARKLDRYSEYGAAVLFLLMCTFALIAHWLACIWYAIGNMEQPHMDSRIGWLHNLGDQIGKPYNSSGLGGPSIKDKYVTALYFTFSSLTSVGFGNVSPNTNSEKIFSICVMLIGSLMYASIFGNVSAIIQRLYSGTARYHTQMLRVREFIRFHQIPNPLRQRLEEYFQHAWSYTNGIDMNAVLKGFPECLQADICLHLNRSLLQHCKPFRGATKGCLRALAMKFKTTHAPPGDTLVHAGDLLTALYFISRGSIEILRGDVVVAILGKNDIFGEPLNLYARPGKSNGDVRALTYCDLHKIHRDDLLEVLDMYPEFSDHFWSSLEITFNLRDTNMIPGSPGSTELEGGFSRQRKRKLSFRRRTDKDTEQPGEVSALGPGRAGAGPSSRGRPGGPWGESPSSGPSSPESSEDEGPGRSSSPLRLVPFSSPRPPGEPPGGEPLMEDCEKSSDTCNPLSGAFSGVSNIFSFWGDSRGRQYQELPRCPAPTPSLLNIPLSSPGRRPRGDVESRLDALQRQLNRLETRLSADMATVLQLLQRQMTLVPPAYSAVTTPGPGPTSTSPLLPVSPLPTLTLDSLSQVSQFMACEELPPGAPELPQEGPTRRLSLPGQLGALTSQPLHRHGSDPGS

SMILES	hERG current change (%, negative = inhibition) at 10uM [%]
CCCN1CCN(C(=O)Cn2c(=O)oc3cc(S(=O)(=O)NCc4ccccc4)ccc32)CC1	-6.53
CCCCn1c(CCCNC(=O)CC)nc2ccccc21	-37.3
Cc1c(-c2ccccc2)nc2ccccc2c1C(=O)Oc1ccc([N+](=O)[O-])cc1	-21.6
CC(C)(C)n1nnnc1C(c1cccc(C(F)(F)F)c1)N1CCOCC1 (stereo not drawn)	1.38
Cc1c(NC(=O)/C(C#N)=C/c2ccc(-c3cc(Cl)ccc3Cl)o2)c(=O)n(-c2ccccc2)n1C	-5.54
Cc1ccccc1OCC(=O)Nc1ccncc1	11.6
CC(=O)Nc1ccc2nc(NS(=O)(=O)c3ccc(C)cc3)sc2c1	16.2
Cc1cc(C)n(-c2ccc(Cl)c(C(=O)OCC(=O)N3CCCCC3C)n2)n1 (stereo not drawn)	-4.12
CN(C)CCCNS(=O)(=O)c1ccc(Cl)s1	1.2
CC(C)(CNC(=O)c1ccc(NS(=O)(=O)c2ccc(F)c(F)c2)cc1)N1CCOCC1	-5.36
CCOC(=O)N1CCN(C(=O)c2cc(-c3ccncc3)nc3ccccc23)CC1	-48.4
COC(=O)CCC(=O)NN1C(=O)c2ccccc2C1=O	14
CCN(CC)S(=O)(=O)c1ccc(OC)c(NC(=O)CCc2c(C)noc2C)c1	-6.33
CCC(C)Sc1ccc([C@H]2N[C@@](Cc3ccccc3)(C(=O)OC)[C@H]3C(=O)N(CC)C(=O)[C@@H]23)cc1OC.O=C(O)C(F)(F)F (stereo partly drawn)	12.5
CC(=O)N1CCc2cc(S(=O)(=O)NC3CCCCC3)ccc21	10.9
CC1=C(C(=O)NC2CCCc3c2cnn3-c2cccc(C)c2C)OCCO1 (stereo not drawn)	11.8
COc1ccccc1NC(=O)c1ccc(NC(=O)COC(=O)c2ccc(O)cc2)cc1	3.74
CC(C)(C)NC(=O)NC(=O)COC(=O)Cc1ccc(Cl)cc1Cl	4.09
CCOC(=O)/C(=C/C=C1\Sc2ccccc2N1CC)C(C)=O	4.94
COc1ccc(CN2CCN(CCC(C)C)C(CCO)C2)cc1Cn1cccn1 (stereo not drawn)	-48.1
CC(C)Cn1c(SCC(=O)N2CCN(S(=O)(=O)c3ccccc3)CC2)nc2ccccc21	0.539
CCCc1cc(=O)[nH]c(SCC(=O)Nc2cccc3ccccc23)n1	-10.7

SMILES	hERG current change (%, negative = inhibition) at 10uM [%]
O=C(NC1CCCc2c1cnn2-c1ccc(F)cc1F)c1ccccn1 (stereo not drawn)	1.82
CCn1c(=O)[nH]c(=O)c2c(N)c(C(=O)c3cc(F)ccc3F)sc21	-57.4
Cc1cccc(-c2nnc(SCC(=O)NCc3ccc4c(c3)OCO4)n2C)c1	-22.5
O=C(COc1ccc(Cl)cc1Cl)N1CCCN(C(=O)COc2ccc(Cl)cc2Cl)CC1	-47.2
COC(=O)C1=C(c2ccc(F)cc2OCc2ccccc2)C[C@@H]2CC[C@H]1N2C(=O)NCc1ccc(OC)c(OC)c1	-2.13
CCOc1ccc(N2CC(C(=O)NCc3ccc(C)n3C)CC2=O)cc1 (stereo not drawn)	-7.48
CCc1cccc(NC(=O)CCS(=O)(=O)c2ccc(Br)cc2)c1	5.49
COc1ccc(C(=O)CC2OC(=O)c3c2ccc(OC)c3OC)cc1 (stereo not drawn)	0.564
O=C(NCCOc1ccccc1Cl)c1ncn[nH]1	-2.83
COc1ccc(S(=O)(=O)n2ccnc2)c2cccnc12	19.4
CCN(CC)C(=O)Cn1cc(C(=O)C(=O)N(C)C2CCN(C)CC2)c2ccccc21	19.4
COC(=O)c1c(-c2cccc3ccccc23)csc1NC(=O)Cc1ccc(OC)c(OC)c1	5.18
CCOC(=O)c1sc(NC(=O)c2ccc(S(=O)(=O)N(C)C)cc2)cc1C	14.1
C=CCSC1=C(C#N)C(c2cc(Br)c(O)c(OC)c2)CC(=O)N1 (stereo not drawn)	-14.2
Cc1ccc(S(=O)(=O)NCCC(=O)N2CCN(C/C=C/c3ccccc3)CC2)cc1	-49.5
CCOC(=O)N1CCC(N2Cc3cccc(C(=O)Nc4ccc(F)cc4)c3C2=O)CC1	-55.3
Cc1ccc(NC(=O)C(C)Sc2nnc(-c3cccnc3)o2)cc1 (stereo not drawn)	11.9
O=C(NCCC1CCCCN1S(=O)(=O)c1cccs1)C(=O)Nc1ccccc1F (stereo not drawn)	-1.31
O=C(CCCc1ccccc1)NCCS(=O)(=O)N1CCN(c2ccccc2F)CC1	-18.5
CCC(=O)Nc1ccc(-c2nnc(SCc3ccc(C(=O)Nc4nccs4)cc3)n2CC)cc1	9.68
CCS(=O)(=O)c1ccc2oc(Nc3ccc(OC)cc3)nc2c1	2.92
CCOc1ccc(C(=O)NCC(=O)NCCCSc2ccccc2)cc1OCC	-18.1

SMILES	hERG current change (%, negative = inhibition) at 10uM [%]
COc1ccc(-n2ncc(C(=O)NC3CC3)c2C2CCN(C(=O)OC(C)(C)C)CC2)cc1	3.28
Cc1ccc(/C(O)=C2\C(=O)C(=O)N(C)C2c2ccc([N+](=O)[O-])cc2)cc1 (stereo not drawn)	13.1
Cc1ccc(/C=C/C(=O)c2ccc(C)cc2)cc1	22.6
CCN(c1cccc(C)c1)S(=O)(=O)c1cc2c3c(c1)CCC(=O)N3CCC2	-30.5
O=C(NCCCc1ccccc1)c1cccc([N+](=O)[O-])c1	-23
COc1cccc(-n2c(Cc3cc(=O)[nH]c(=O)[nH]3)nnc2SCC(=O)NC2CCCCC2)c1	13.4
O=C(C1CCCCN1S(=O)(=O)c1ccccc1[N+](=O)[O-])N1CCCC1 (stereo not drawn)	10.9
NS(=O)(=O)c1cccc(NC(=O)CSc2nc3ccccc3[nH]2)c1	14.8
O=C(Nc1cccn2ncnc12)c1ccc(Cl)cc1Cl	-2.56
CCOC(=O)C1CCCN(C(=O)Nc2ccccc2)C1 (stereo not drawn)	4.59
Cc1ccc(-n2nnc(-c3cccnc3Cl)n2)cc1	22.8
COc1cccc(/C=N/Nc2nn3cnnc3c3ccccc23)c1O	-3.08
C=C(C)c1cccc(C(C)(C)NC(=O)NC2CCN(Cc3ccccc3)CC2)c1.Cl	-55.5
Cc1noc(C)c1S(=O)(=O)N1CCC(C(=O)c2ccccc2)CC1	-43
CC(C)(C)C(=O)Nc1nnc(Cc2ccccc2)s1	0.154
COc1cccc(Cn2nc(C(=O)O)c3ccccc3c2=O)c1	9.63
CCCCOc1ccc(NC(=O)C2OC3OC(C)(C)OC3C3OC(C)(C)OC23)cc1 (stereo not drawn)	20.7
COc1ccccc1-c1nnc(SCC(=O)NC2CCCCC2)n1C	23.6
Cc1ccc(S(=O)(=O)Nc2c(C)nn(C)c2C)cc1C	15.2
[O-]/[N+](=C\c1cccc(Br)c1)c1ccccc1	12.5
COc1cccc(C#Cc2c(C=O)n(C)c3ccccc23)c1	10.3
O=C(NNC(=S)NC(=O)c1ccc(Br)cc1)c1ccc([N+](=O)[O-])cc1	16

SMILES	hERG current change (%, negative = inhibition) at 10uM [%]
CCOc1ccccc1/C=N/NC(=O)CNC(=O)c1cccs1	-42.4
COc1cccc(NC(=O)Cn2nnc(C(=O)Nc3ccccc3)c2N)c1	-8.33
O=C(N/N=C/c1cn(-c2cccs2)nc1-c1ccccc1)c1ccccc1Cl	-11.4
Cc1c(CC(=O)NCCCC(=O)O)c(=O)oc2cc3occ(-c4ccccc4)c3cc12	11.4
CCCCNC(=O)C1CCCN1C(=O)Nc1cccc(OC)c1 (stereo not drawn)	14
CCN1CCN(CNC(=O)c2cnccn2)CC1	15.4
Cc1ccc(C(O)Cn2nc(C)cc2C)cc1 (stereo not drawn)	13.7
Cc1cc(C)c2c(=O)cc(C(F)(F)F)oc2n1	34.7
CC1CC(C)CN(C(=O)COC(=O)c2ccc3c(c2)OCO3)C1 (stereo not drawn)	-17.6
Cc1cccc(N2CCN(C(=O)C3CC(=O)N(C4CCCC4)C3)CC2)c1C (stereo not drawn)	-57.9
O=C(CCn1c(=O)oc2ccccc21)N1CCN(c2ccccc2F)CC1	-23.8
Fc1ccc(/C=N/Nc2nn[nH]n2)cc1	10.7
COc1ccc(Nc2nc(CC(C)=O)ns2)cc1	8.65
Cc1ccc2occ(/C=N/NC(=O)c3ccc(O)cc3)c(=O)c2c1	-3.7
CCC(=O)Nc1cc(C(=O)OCC(=O)c2ccc(Cl)cc2Cl)ccc1C	1.89
CN(C)C=O.Cc1cc(C)nc(NC(=O)CSc2nc3cc(Cl)ccc3s2)n1	-6.21
Cc1n[nH]c(C)c1CCN(C)Cc1cn(C)nc1-c1ccc2c(c1)OCCO2	-4.42
Cc1sc2nc(CN3CCOCC3)[nH]c(=S)c2c1C	-21.5
COc1cccc(-n2nnc3c(=O)n(CC(=O)N4CCCc5ccccc54)cnc32)c1	-10.3
Cn1ncc(Cl)c1C(=O)Nc1cccc(Cl)c1	-11.2
Cc1nn(-c2ccccc2)nc1CNC(=O)C1CC1	6.65

— paper PMC4336329 (PLoS ONE, 2015)
